Data taken from the supplement of paper PMC3334620.
The full ranking holds about 33,000 sequences; the median of “E-score (-0.5 to 0.5)” is about -0.032, and the highest 2% start at about 0.36. The list shows a part of the results.

Biological target: T1, Sko1 (UniProt Q02100)
T1 sequence: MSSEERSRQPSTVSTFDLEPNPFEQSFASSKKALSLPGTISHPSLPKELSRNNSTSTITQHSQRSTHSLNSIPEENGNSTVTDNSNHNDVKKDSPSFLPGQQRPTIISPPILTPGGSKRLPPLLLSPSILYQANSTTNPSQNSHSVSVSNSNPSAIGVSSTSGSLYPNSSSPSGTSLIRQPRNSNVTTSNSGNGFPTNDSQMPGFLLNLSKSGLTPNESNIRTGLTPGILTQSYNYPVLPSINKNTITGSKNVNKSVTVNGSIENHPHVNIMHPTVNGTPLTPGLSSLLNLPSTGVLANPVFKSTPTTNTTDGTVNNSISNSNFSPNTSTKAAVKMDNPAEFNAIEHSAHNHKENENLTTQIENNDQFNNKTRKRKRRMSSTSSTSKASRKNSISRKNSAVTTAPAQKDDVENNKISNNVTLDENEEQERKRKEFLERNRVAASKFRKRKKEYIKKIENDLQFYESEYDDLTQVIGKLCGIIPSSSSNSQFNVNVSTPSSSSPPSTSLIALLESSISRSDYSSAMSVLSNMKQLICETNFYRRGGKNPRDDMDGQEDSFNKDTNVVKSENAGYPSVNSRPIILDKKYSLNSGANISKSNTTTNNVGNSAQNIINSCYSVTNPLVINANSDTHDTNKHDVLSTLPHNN
Assay: PBM E-score (8-mer binding enrichment) (E-score (-0.5 to 0.5)); higher = stronger / more preferred TF binding; most listed sequences are background and not binding sites
Conditions: protein concentration: 200 nM; construct: GST-full length
Description: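 Universal 'all 10-mer' protein binding microarrays (Agilent AMADID 015681) probed with GST-tagged S. cerevisiae TFs (full-length or DBD) made by in vitro transcription/translation (PURExpress), about 100-200 nM. Bound TF was detected with fluorescent anti-GST. Each ungapped 8-mer (which stands for itself and its reverse complement) is scored by the PBM enrichment score (E-score), a modified Wilcoxon-Mann-Whitney statistic from -0.5 to +0.5, computed with the Universal PBM Analysis Suite. Scale: above 0.35 generally sequence-specific binding.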

Row | Sequence | PBM E-score
1 | GCGTGCCA | -0.151
2 | ATACTATC | 0.0481
3 | GATTCCAA | -0.05
4 | CCCAGGAC | -0.332
5 | CGTGTAAG | 0.218
6 | TATGACCA | 0.178
7 | GCTCGTCA | 0.351
8 | GGCTAACC | -0.268
9 | CTAATGTA | 0.14
10 | GAAGAAAC | 0.056
11 | AAACTAAA | 0.214
12 | ACAGCTAC | -0.0244
13 | GTAGGTAA | 0.0801
14 | TAACCACA | 0.115
15 | ATAACGCA | 0.284
16 | CCGGAAAG | -0.158
17 | CATCGCTA | 0.13
18 | TGTAAACA | 0.206
19 | CGGGAAAG | -0.185
20 | ACGGTCAT | 0.218
21 | CTCTGACC | -0.133
22 | CTTCTGTC | 0.0332
23 | CGCATTTC | 0.151
24 | ACATGTAC | 0.0467
25 | ACCCATGA | -0.0642

Row | Sequence | PBM E-score
26 | GCATACCA | -0.0866
27 | ACCCCCGA | -0.144
28 | TGGATCAA | -0.00178
29 | ACGGATGC | 0.0575
30 | CCAAATCA | 0.0467
31 | CACGGAGC | -0.0891
32 | GGACGTAA | 0.426
33 | GGGAACTA | -0.0345
34 | GATGAAGA | -0.159
35 | GGCTCCAA | -0.191
36 | AGAGTGGC | -0.046
37 | GAGCCCGC | -0.24
38 | ATCGCATC | -0.0527
39 | AGTCTGTA | -0.0432
40 | ATAGACCC | 0.0351
41 | CAGTCGAC | 0.119
42 | ACAGGCAT | -0.0532
43 | AGCCGGAG | 0.0107
44 | AGGATCGA | -0.0992
45 | CCTGAACC | 0.0606
46 | GTATACAC | 0.234
47 | CCATGTCA | 0.149
48 | GGCAGCCC | -0.345
49 | GAAGGCAC | -0.0367
50 | AGCAAGCG | -0.0581

Row | Sequence | PBM E-score
51 | CCTTGGAC | -0.0827
52 | CTTAGTGC | -0.158
53 | GGGGACAC | -0.203
54 | GTTGCGCA | 0.0149
55 | TGTCCAAA | 0.0638
56 | GTGTCCGA | 0.0394
57 | AAGACCTT | 0.0103
58 | ATTCCGTC | 0.154
59 | CACCGGGC | -0.343
60 | GGGGGTGA | -0.175
61 | AACCCACT | 0.0154
62 | AGGAGGAT | -0.12
63 | AAGCCTAC | 0.0793
64 | ACCAGCCT | -0.272
65 | GCTTGTCC | -0.105
66 | CCAGCGAG | -0.287
67 | CCCGCTTC | -0.286
68 | GTTAAAAA | 0.22
69 | ATCAATTC | -0.0583
70 | CTTGGAAA | -0.0507
71 | GCCACCGA | -0.0905
72 | AGACCGAC | -0.0155
73 | ACGTTATC | 0.413
74 | AGCACTGA | -0.0783
75 | AACAGCCT | -0.186

Row | Sequence | PBM E-score
76 | ATCCTGAC | 0.0973
77 | CCCAGGGA | -0.326
78 | TGGAGTAA | 0.111
79 | CGAAATCC | 0.0256
80 | CGCTAACA | 0.0733
81 | CGAGTATA | -0.0254
82 | ACATATGC | 0.00575
83 | TCTTGCAA | 0.0663
84 | ATATTTTA | 0.184
85 | ATCCGACC | 0.00665
86 | ATCAGTAG | 0.0419
87 | AGGTAAAG | 0.131
88 | ACTGCGCA | 0.0898
89 | AATTACTG | 0.0967
90 | ACCCCATC | -0.171
91 | CATGGACC | -0.143
92 | ACAGTTGA | -0.054
93 | CCCATAAC | -0.0669
94 | AGTTTATA | 0.178
95 | ATGGCGTC | 0.392
96 | CGAATTAA | 0.191
97 | AAACGTGC | 0.231
98 | AGCTTCCG | -0.156
99 | CCATGTCG | 0.0932
100 | CCGGACCA | -0.127

Row | Sequence | PBM E-score
101 | ACAAGCCC | -0.112
102 | ACTTGCGA | 0.0546
103 | AAGTATAT | 0.118
104 | ATTGATCC | 0.0318
105 | TAACGTTA | 0.302
106 | TCGCGCGA | 0.00443
107 | AGAACTAG | -0.177
108 | CGAATACC | -0.0967
109 | AGATCCAA | -0.133
110 | CAAGTGCG | 0.119
111 | GGGTCGAA | -0.21
112 | CGCAGAAG | 0.151
113 | ATACCGGA | -0.0679
114 | AGGCCGGG | -0.396
115 | AGATCTCC | -0.267
116 | GCCTTGTA | -0.216
117 | CTATCGCA | -0.0882
118 | ATGTGACA | 0.169
119 | CCCAATCA | -0.185
120 | CGTAGGTA | 0.165
121 | AAACTCAC | 0.0991
122 | ACGACTGC | -0.125
123 | GAGCCACA | -0.185
124 | CGCCAAAG | -0.208
125 | ATAGATTG | 0.0453

Row | Sequence | PBM E-score
126 | CTGTGCTA | -0.0875
127 | CATGCCTA | -0.228
128 | CCCTCGCC | -0.241
129 | TTGCCAAA | -0.168
130 | AACCCTGA | 0.0138
131 | TACAAACA | 0.164
132 | CCGGCACC | -0.269
133 | CTTATGCC | -0.123
134 | CACGCGCG | 0.127
135 | AACGCCAG | -0.0689
136 | ATCGATTG | 0.213
137 | GCAAGGGC | -0.184
138 | CATCCCGG | -0.325
139 | ACCTGTAG | -0.289
140 | ACAAGAAG | 0.0038
141 | ATAAGAGG | -0.124
142 | GTGGCAGA | -0.0257
143 | ATGTGCCG | -0.218
144 | GAACATGA | 0.025
145 | CCGCTTAC | -0.0682
146 | CGAAATTA | 0.275
147 | CTACCTGC | -0.266
148 | CACGACCA | 0.029
149 | ATCCGAGA | -0.0475
150 | AGGTATAG | -0.141

Row | Sequence | PBM E-score
151 | CTGAACAC | 0.133
152 | AGCCATCC | -0.322
153 | GCGTAGGA | 0.0517
154 | CACAGCCA | -0.0637
155 | AGCTGGGA | -0.198
156 | GAGTACCC | -0.214
157 | CGCCCAGC | -0.176
158 | AGGCCGTC | -0.178
159 | ATATTAAG | 0.189
160 | GCAACGCC | -0.0627
161 | AAATGACC | 0.0951
162 | AAAACTTT | -0.00891
163 | AACGGCCA | -0.166
164 | CACTGGTC | -0.159
165 | CGGTTACC | -0.221
166 | GCGTCAAA | 0.274
167 | ACACGCGT | 0.275
168 | AGTTGCTC | -0.144
169 | CGAAACGC | -0.0498
170 | GAATGCCA | -0.114
171 | AGTAGCGG | -0.127
172 | ATCCTTTC | 0.0248
